Laboratory results as given in the supplement of paper PMC10126150.
Sequences with one replicate were seen in a single cluster, so their values are uncertain.
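Also: ATP exposure 15 min at 22 °C before imaging.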

Each sequence was assayed on ATP (assay: switch fluorescence ratio, 500 uM ATP over buffer (Cy3 cluster intensity, sum of 5 cycles each) (fold (ratio)); higher = stronger signal-on switching upon ATP binding; sequences stand for … in TCGTCGGCAGCGTCAGATGTGTATAAGAGACAGTTTTTTTTTTTTTTTTTTTTTTTTT…TC). Conditions: aptamer strand: ATP DNA aptamer (quencher-CACCTGGGGGAGTATTGCGGAGGAAGG + anchor), 100 nM annealed; ATP concentration: 500 uM; one replicate.
Summary of the method: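 Cy3-labelled switching-strand clusters on a modified Illumina MiSeq flow-cell were annealed to 100 nM quencher-labelled ATP aptamer and imaged first in selection buffer, then after 15 min with 500 uM ATP at 22 °C. NaOH stripping and re-annealing separated each of five buffer/ATP cycles, and clusters outside 100-1000 RFU were excluded. The fluorescence ratio sums target-cycle Cy3 intensity over buffer-cycle Cy3 intensity per cluster and averages it per switch-domain sequence.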
With GCACGCCCGT the switch fluorescence ratio was 1.06.
Sequence CGGCTAGGAT has a switch fluorescence ratio of 1.02.
Work on CTTTCAGTGA yielded a switch fluorescence ratio of 1.
Sequence AAGACGTGTT has a switch fluorescence ratio of 0.971.
With CATTCGAGTT the switch fluorescence ratio was 1.01.
Work on AATGTACAGG yielded a switch fluorescence ratio of 1.04.
In the case of GGTTAGAGGA, the switch fluorescence ratio is reported as 1.01.
Sequence AGTTGAATCC has a switch fluorescence ratio of 1.04.
For GATGTATCAC, the switch fluorescence ratio was 1.01.
GTGGCCACTG gave a switch fluorescence ratio of 1.01.
With CGCTTTTTTC the switch fluorescence ratio was 1.25.
In the case of ATTCAACAAA, the switch fluorescence ratio is reported as 0.976.
TTAACGGGG was tested, and the switch fluorescence ratio was 1.22.
CTTGAACACT gave a switch fluorescence ratio of 1.01.
With GGCCCCCGTG the switch fluorescence ratio was 1.18.
TATGCTTAGC gave a switch fluorescence ratio of 1.
With AGATCGGACA the switch fluorescence ratio was 1.03.
For TGCCATGAGG, the switch fluorescence ratio was 1.46.
Work on AACGTGAAGA yielded a switch fluorescence ratio of 1.02.
Sequence CAGAAAATCA has a switch fluorescence ratio of 0.985.
GCGTCGGAA was tested, and the switch fluorescence ratio was 1.
Sequence ATGTTTTCCC has a switch fluorescence ratio of 1.
GCGTATAGTG was tested, and the switch fluorescence ratio was 1.02.
In the case of TCGGTCATAA, the switch fluorescence ratio is reported as 0.99.
With TGAATGCTGG the switch fluorescence ratio was 1.04.
In the case of ATCAAAACCC, the switch fluorescence ratio is reported as 1.11.
Sequence CTAAACCATC has a switch fluorescence ratio of 1.06.
Work on TATTTGGCAG yielded a switch fluorescence ratio of 0.973.
GAAATCGTGC showed a switch fluorescence ratio of 1.04.
Work on GACGGACTGT yielded a switch fluorescence ratio of 1.21.
Work on CGAGGATATG yielded a switch fluorescence ratio of 1.02.
GTCGGCTCCT gave a switch fluorescence ratio of 0.981.
Work on TCGGGATACA yielded a switch fluorescence ratio of 1.06.
For ACGCGCTACT, the switch fluorescence ratio was 1.07.
With AAGCTCTTTC the switch fluorescence ratio was 1.01.
GCGGGATCGC gave a switch fluorescence ratio of 0.969.
TTTGCGAATT gave a switch fluorescence ratio of 1.02.
TAATAATCGC was tested, and the switch fluorescence ratio was 1.01.
Work on AATACCACGC yielded a switch fluorescence ratio of 1.1.
AATTTGACCG was tested, and the switch fluorescence ratio was 1.
Sequence CGCAGTACGT has a switch fluorescence ratio of 3.95.
TGCGAAGGTG gave a switch fluorescence ratio of 1.32.
GACGAATAGC showed a switch fluorescence ratio of 1.4.
TTGGATAAGC was tested, and the switch fluorescence ratio was 1.02.
Sequence CACAACCCTT has a switch fluorescence ratio of 0.987.
In the case of GTTACGAATG, the switch fluorescence ratio is reported as 0.99.
In the case of CGCGCAGCCT, the switch fluorescence ratio is reported as 1.05.
TGATTAATT was tested, and the switch fluorescence ratio was 0.977.
GGGGAAGT gave a switch fluorescence ratio of 0.904.
In the case of GCAGCCGAGG, the switch fluorescence ratio is reported as 0.969.
With TTATGGGGGC the switch fluorescence ratio was 0.974.
Sequence TAGACCGTCC has a switch fluorescence ratio of 1.87.
In the case of GCATGGGATA, the switch fluorescence ratio is reported as 0.99.
Sequence AGCTTATCTT has a switch fluorescence ratio of 1.
Work on GCGCTACTAA yielded a switch fluorescence ratio of 1.12.
With CTCAGTGTAG the switch fluorescence ratio was 0.989.
Work on GATACGCGGC yielded a switch fluorescence ratio of 1.2.
With AAAGGTGCCG the switch fluorescence ratio was 0.991.
With CGCCCTTCTT the switch fluorescence ratio was 1.06.
Sequence GGCCTGACAC has a switch fluorescence ratio of 1.
Work on CACCTTGTCT yielded a switch fluorescence ratio of 1.02.
For GTAGTAAGGA, the switch fluorescence ratio was 1.27.
CGAAGACGTG was tested, and the switch fluorescence ratio was 0.962.
Sequence ATTAGTAATA has a switch fluorescence ratio of 1.02.
For AGGTTACTAT, the switch fluorescence ratio was 0.998.
For GGTCGAACAC, the switch fluorescence ratio was 0.981.
With ACATTTCGAG the switch fluorescence ratio was 1.01.
Sequence TTTAGTCTA has a switch fluorescence ratio of 1.01.
ATGATCGTAG was tested, and the switch fluorescence ratio was 0.958.
Sequence TTGAACTGC has a switch fluorescence ratio of 1.02.
For AAGAGGAGTT, the switch fluorescence ratio was 0.983.
Work on CGTTGACTTT yielded a switch fluorescence ratio of 0.975.
CCGGTCCTGA was tested, and the switch fluorescence ratio was 1.02.
In the case of AAGGACTGTT, the switch fluorescence ratio is reported as 0.984.
For CTTAGGGTGC, the switch fluorescence ratio was 1.04.
TCCGGAACTC was tested, and the switch fluorescence ratio was 1.55.
TGCGCGCAGT was tested, and the switch fluorescence ratio was 0.989.
GGTTTGTTC showed a switch fluorescence ratio of 0.971.
TACAGAGCC was tested, and the switch fluorescence ratio was 0.989.
With ATGCTAACTC the switch fluorescence ratio was 1.06.
GCTTAACGGG was tested, and the switch fluorescence ratio was 0.983.
CGTGTAGTAC showed a switch fluorescence ratio of 1.19.
CTGGAACTGG showed a switch fluorescence ratio of 0.985.
GACATCTAAT gave a switch fluorescence ratio of 1.05.
For GATATGTCAG, the switch fluorescence ratio was 0.949.
Sequence CCCTTGTGTA has a switch fluorescence ratio of 0.982.
For TTGGATAGT, the switch fluorescence ratio was 1.04.
Sequence TTTTGTCCGA has a switch fluorescence ratio of 1.02.
With TAGGCGCCAC the switch fluorescence ratio was 1.01.
Work on GACACAGTGG yielded a switch fluorescence ratio of 1.05.
Work on CAGCGCCTAT yielded a switch fluorescence ratio of 0.998.
TTTCTACGC showed a switch fluorescence ratio of 1.12.
GTATGAAAAA gave a switch fluorescence ratio of 0.989.
In the case of CCTTTTGCCT, the switch fluorescence ratio is reported as 1.05.
TTATTGCGAA was tested, and the switch fluorescence ratio was 1.04.
ACCGGTATTG showed a switch fluorescence ratio of 1.05.
Sequence AAAGTACAAT has a switch fluorescence ratio of 1.17.
CATCTCTACG was tested, and the switch fluorescence ratio was 1.02.
ATGACGTCGA gave a switch fluorescence ratio of 1.01.
GTAAGGACA was tested, and the switch fluorescence ratio was 1.02.
Work on GTGGTCGCGA yielded a switch fluorescence ratio of 0.983.
In the case of TTTTTCCGA, the switch fluorescence ratio is reported as 1.06.
CATCCTTTGT showed a switch fluorescence ratio of 1.01.
For GCTTTGGCCA, the switch fluorescence ratio was 1.01.
In the case of AGGGATATCA, the switch fluorescence ratio is reported as 1.
Sequence GGATGCACGA has a switch fluorescence ratio of 0.989.
GGAACAGGCG was tested, and the switch fluorescence ratio was 1.01.
In the case of TACTAACGTT, the switch fluorescence ratio is reported as 1.39.
TCTCGATGTG gave a switch fluorescence ratio of 0.96.
Work on CAAAAGGTGA yielded a switch fluorescence ratio of 1.04.
GTTGGCTTAA was tested, and the switch fluorescence ratio was 1.02.
In the case of AGACGGGTCC, the switch fluorescence ratio is reported as 0.99.
GCCGAGGATA gave a switch fluorescence ratio of 1.03.
Sequence TATGAGGTGT has a switch fluorescence ratio of 1.08.
Sequence AGAAGAAGG has a switch fluorescence ratio of 1.05.
In the case of AAATGTCTGG, the switch fluorescence ratio is reported as 0.953.
For CACAATGG, the switch fluorescence ratio was 1.16.
CAGGGATTGG was tested, and the switch fluorescence ratio was 0.996.
For CTTTGATATG, the switch fluorescence ratio was 1.02.
Work on AAGACTCATG yielded a switch fluorescence ratio of 0.995.
Sequence GGTTATG has a switch fluorescence ratio of 1.02.
Work on TCTATACTCT yielded a switch fluorescence ratio of 1.06.
CTGGTAAGAA showed a switch fluorescence ratio of 1.03.
ACCCACAACG showed a switch fluorescence ratio of 1.24.
GAGAACTGCG showed a switch fluorescence ratio of 1.01.
Sequence ACGTTCAGCG has a switch fluorescence ratio of 0.976.
Sequence GCGTCTGCTG has a switch fluorescence ratio of 1.
Work on AACGGCCTAC yielded a switch fluorescence ratio of 1.17.
Work on GTATTAACTC yielded a switch fluorescence ratio of 1.01.
GTTCAATTGC showed a switch fluorescence ratio of 0.971.
In the case of TCATACTGGG, the switch fluorescence ratio is reported as 0.991.
For TAATTGCCAC, the switch fluorescence ratio was 0.989.
In the case of GCGTCGAGGT, the switch fluorescence ratio is reported as 0.986.
For GCGCGGACG, the switch fluorescence ratio was 1.03.
Sequence TAATGGTACG has a switch fluorescence ratio of 1.
Sequence AGGGTGCAAA has a switch fluorescence ratio of 0.963.
GCAATTGGCA gave a switch fluorescence ratio of 1.01.
With TTACCGGTCG the switch fluorescence ratio was 1.02.
With TTTGAGAACA the switch fluorescence ratio was 1.
TGATTCAATG gave a switch fluorescence ratio of 1.04.
In the case of CGACGAGTCC, the switch fluorescence ratio is reported as 1.08.
For GCAACTAGTA, the switch fluorescence ratio was 0.969.
GCTTCACCTA was tested, and the switch fluorescence ratio was 1.07.
Sequence TGGCATTGGG has a switch fluorescence ratio of 1.02.
GGATGCGCGA was tested, and the switch fluorescence ratio was 1.07.
For AAGACAGCGT, the switch fluorescence ratio was 0.958.
GTACTGGTGG showed a switch fluorescence ratio of 1.02.
TTGGTGTATT showed a switch fluorescence ratio of 1.01.
With GCTTCTTTCC the switch fluorescence ratio was 1.14.
CCTCATCACG gave a switch fluorescence ratio of 1.36.
Work on GGCTAAGCA yielded a switch fluorescence ratio of 1.
Sequence GGACTAATAA has a switch fluorescence ratio of 0.995.
In the case of CAACCAACTA, the switch fluorescence ratio is reported as 1.03.
CAATACTCTT gave a switch fluorescence ratio of 2.39.
With CTGATGCATT the switch fluorescence ratio was 1.36.
Sequence ATTCCGGGCG has a switch fluorescence ratio of 1.07.
Work on GCGTTAATTA yielded a switch fluorescence ratio of 0.958.
